Measured values: the supplement of paper PMC3334620
Whole data set: some 33,000 sequences, median “E-score (-0.5 to 0.5)” near -0.021, cut for the highest 2% near 0.32. The list shows a part of the results.

Molecular target: T1, Zap1 (UniProt P47043)
T1 sequence: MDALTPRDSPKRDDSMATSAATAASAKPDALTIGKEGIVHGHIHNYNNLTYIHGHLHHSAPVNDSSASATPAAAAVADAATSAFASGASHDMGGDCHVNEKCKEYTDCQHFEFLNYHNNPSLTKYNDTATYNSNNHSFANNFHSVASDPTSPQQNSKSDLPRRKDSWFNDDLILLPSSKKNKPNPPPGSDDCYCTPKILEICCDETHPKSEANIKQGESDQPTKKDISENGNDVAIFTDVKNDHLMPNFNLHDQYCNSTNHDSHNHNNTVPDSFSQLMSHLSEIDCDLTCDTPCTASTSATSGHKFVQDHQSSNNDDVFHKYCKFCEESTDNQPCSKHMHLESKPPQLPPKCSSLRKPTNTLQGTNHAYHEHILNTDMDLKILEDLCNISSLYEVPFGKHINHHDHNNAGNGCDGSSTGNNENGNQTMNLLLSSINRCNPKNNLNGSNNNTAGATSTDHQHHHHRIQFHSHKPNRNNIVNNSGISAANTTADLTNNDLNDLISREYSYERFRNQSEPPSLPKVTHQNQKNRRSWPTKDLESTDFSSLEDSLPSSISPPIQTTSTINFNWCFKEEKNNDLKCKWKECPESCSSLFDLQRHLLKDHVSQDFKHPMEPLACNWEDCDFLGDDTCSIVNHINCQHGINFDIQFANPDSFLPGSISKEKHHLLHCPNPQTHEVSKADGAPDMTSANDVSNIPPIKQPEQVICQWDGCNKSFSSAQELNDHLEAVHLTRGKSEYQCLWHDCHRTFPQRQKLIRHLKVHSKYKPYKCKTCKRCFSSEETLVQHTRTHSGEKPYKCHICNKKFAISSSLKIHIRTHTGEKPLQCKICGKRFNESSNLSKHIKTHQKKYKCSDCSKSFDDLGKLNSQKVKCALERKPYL
Assay: PBM E-score (8-mer binding enrichment) (E-score (-0.5 to 0.5)); higher = stronger / more preferred TF binding; most listed sequences are background and not binding sites
Conditions: protein concentration: 200 nM; construct: GST-full length
Summary of the method: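 Yeast transcription factors carrying a GST tag, as full-length proteins or DNA-binding domains, were produced by PURExpress in vitro transcription/translation. About 100-200 nM protein was applied to universal all-10-mer Agilent arrays, double-stranded by primer extension on fresh or once-stripped slides. Bound protein was detected with fluorescent anti-GST, and scans were normalised with masliner. The Universal PBM Analysis Suite gave each ungapped eight-base word, pooled with its reverse complement, an E-score, a modified Wilcoxon-Mann-Whitney statistic.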

| Sequence | PBM E-score |
| --- | --- |
| AGTTTGTC | 0.0189 |
| AGTTACCG | 0.297 |
| ACGGTATG | -0.0688 |
| ATCGCTAC | -0.0302 |
| AAATCAAA | 0.132 |
| TGAACCAA | 0.189 |
| CATATTCG | -0.183 |
| GCGTATAA | 0.118 |
| GTAGACAA | 0.0584 |
| AGAGGAAT | -0.209 |
| CAGTTCTC | -0.00936 |
| GATGCGTA | -0.0736 |
| ATGCCCTG | -0.118 |
| CAAGCTTG | -0.204 |
| ACATAATC | 0.0609 |
| AAACCCCC | -0.0821 |
| CTATCTCA | -0.0196 |
| AGACTTTC | 0.0578 |
| AGAGTATA | -0.237 |
| GAGTTCCC | -0.067 |
| ATGAGCCG | -0.0729 |
| ACCTTCTG | 0.287 |
| CTCGGGTA | 0.266 |
| ACAGGTCA | 0.203 |
| ACAGCGCC | -0.184 |

| Sequence | PBM E-score |
| --- | --- |
| AAGACCTA | 0.19 |
| CGCCCGTC | -0.111 |
| AATACGGG | 0.0975 |
| GTCGGAAA | 0.0429 |
| GTGTACTA | -0.0457 |
| ATTCTACG | -0.108 |
| GCGCCGCC | -0.0941 |
| GTAAGGTA | 0.295 |
| ACCGACAA | -0.00253 |
| AAAAAGCG | 0.0786 |
| GGGGCTCA | -0.181 |
| AAAGAAAT | 0.125 |
| CACTTACA | 0.0157 |
| CCCTATCC | -0.096 |
| GCTGTCGA | -0.164 |
| ATTCCCCG | -0.0885 |
| CACTGCTG | -0.185 |
| CATTTGAG | 0.0623 |
| CGGGACCA | -0.349 |
| AATTTCAT | 0.196 |
| CAACAGTA | -0.00264 |
| AATATTCA | 0.0495 |
| AAGTCCCA | -0.137 |
| AGTAGATC | -0.125 |
| CTGAGTGA | 0.0814 |

| Sequence | PBM E-score |
| --- | --- |
| GTTTTCGA | 0.0665 |
| AACGAAAG | 0.0621 |
| GGGGTGGA | -0.0651 |
| CATTGGTC | -0.00134 |
| CACAAATC | 0.169 |
| AAAGTTCC | 0.00456 |
| TCATGAAA | 0.0953 |
| GAGCCGGC | -0.0316 |
| AGTTTATG | 0.15 |
| CTAAGATA | 0.0311 |
| CACCTCTC | -0.242 |
| ATGTGTCG | 0.044 |
| CAGTTCGG | 0.0968 |
| CGTGAGCC | -0.104 |
| AGCAATAC | 0.0449 |
| ACTTTCCG | -0.0516 |
| ATCAATTA | 0.235 |
| ACCTTGGG | 0.327 |
| AGGTGGCG | 0.114 |
| TGTGTGAA | 0.0282 |
| TCTACAAA | 0.174 |
| AATGTAGT | -0.118 |
| ACTTGAGA | -0.17 |
| AACATGTA | 0.091 |
| AATCTTAT | -0.00936 |

| Sequence | PBM E-score |
| --- | --- |
| GAGCGATA | -0.183 |
| ACAGTGCG | -0.273 |
| ACTCCTCG | -0.00893 |
| AAGAATAT | -0.139 |
| GCGCACAA | 0.0815 |
| CTAGTTGC | -0.196 |
| AGTCGTTA | -0.147 |
| ACGGTGTA | -0.154 |
| CGTCCCCC | -0.321 |
| ATAATCGG | 0.178 |
| ATCTGATG | -0.141 |
| CCTTGTTA | 0.12 |
| ATACCATC | 0.00041 |
| GCGGAAAC | -0.0491 |
| GTATCTAA | 0.207 |
| TAACGAAA | 0.241 |
| AGGCAGTA | -0.236 |
| GGCAACAC | -0.0775 |
| GAACATAC | 0.132 |
| ACAAAAAC | 0.182 |
| TCCGTACA | 0.00697 |
| GACTACAA | -0.0528 |
| ACGAGCGA | -0.106 |
| ATCTCGAC | 0.0101 |
| CGCAGATA | -0.0113 |

| Sequence | PBM E-score |
| --- | --- |
| CAGGAGGA | -0.181 |
| GAATGGCA | -0.0917 |
| CATAATGG | 0.0138 |
| GTCGAATA | -0.0377 |
| GATATGAA | 0.161 |
| AGACGGAG | -0.126 |
| ATACGCTA | -0.127 |
| CCGTTACC | 0.303 |
| CACAGCGA | 0.0609 |
| ATCTTAGA | 0.0614 |
| ATTATGTA | 0.113 |
| ACCAGTCT | -0.0264 |
| CACTAATG | -0.0365 |
| ACGTCTGG | -0.177 |
| GTGACGCA | 0.0591 |
| AAGTATAC | 0.132 |
| ACTTGAAC | 0.0351 |
| ACTCCCCC | -0.422 |
| CGTCTCTC | -0.105 |
| ACCGGTTG | 0.119 |
| ACTCTTCA | -0.114 |
| AACTCTTG | 0.093 |
| AGTCTGGG | -0.264 |
| AACACGGC | -0.107 |
| AGACAGAT | -0.0789 |

| Sequence | PBM E-score |
| --- | --- |
| AGCAATGC | -0.0926 |
| AGATGGGA | -0.251 |
| AGTCGATA | -0.109 |
| ATAAGGCC | -0.115 |
| ATTCCTAA | 0.0801 |
| CTCTGCAA | 0.0741 |
| GCGACTCC | -0.265 |
| TGTCATAA | 0.184 |
| GATCAAAA | 0.0234 |
| CGACGTTC | -0.256 |
| AAACGAAG | 0.0582 |
| GTGCGCCA | -0.175 |
| GTAAAAAA | 0.313 |
| TGGCTAAA | 0.0808 |
| AAATTCAC | -0.0619 |
| AGTTCGAG | 0.0375 |
| GGCTAAAC | -0.0561 |
| TGGTTGAA | -0.00067 |
| GATAAATA | 0.172 |
| ATGATCCC | -0.0993 |
| CACCGAAG | 0.119 |
| AACGTCAC | -0.109 |
| GGATTATA | -0.059 |
| GGGCGCAA | -0.0239 |
| CGGAGCAC | -0.215 |

| Sequence | PBM E-score |
| --- | --- |
| ATCCTACA | -0.0985 |
| CGCAAGGC | -0.144 |
| ATCATGCG | -0.0906 |
| CGCGGGTC | 0.25 |
| CGTAACAG | -0.0999 |
| ACGGGGAG | -0.206 |
| ATTCAAAG | 0.11 |
| CCTTAGTA | 0.0285 |
| CAACGACA | -0.0731 |
| AACTCCGC | -0.158 |
| CAGACCTA | -0.0315 |
| CAAAAACG | 0.102 |
| CTCGAAAA | 0.144 |
| CGGGGGCA | -0.0833 |
| CAACCAAG | 0.198 |
| CGCTCATA | -0.0445 |
| AGATACCC | 0.325 |
| AAGCCCGG | -0.295 |
| AGTAACAG | 0.0886 |
| GACGAATC | -0.0909 |
| GAACGATA | -0.00592 |
| ACATGAGC | -0.288 |
| ACCTCTGG | 0.237 |
| CAGACCCC | -0.0477 |
| AAACCCTA | 0.423 |

| Sequence | PBM E-score |
| --- | --- |
| CCCCAGGG | 0.319 |
| TAGAGAGA | -0.0661 |
| GTGATAAC | 0.251 |
| AGAGATGG | -0.0367 |
| ACAAATCA | 0.106 |
| GGATCACA | -0.0629 |
| CACCGCCA | -0.0283 |
| CAATTGCC | -0.229 |
| GCGTCGCC | -0.162 |
| CGGTTCTA | 0.0975 |
| ATGCCCAC | -0.0481 |
| CTCCAACC | 0.0771 |
| CTCGGTGC | -0.057 |
| AAATTTAC | 0.145 |
| GAAAAACC | 0.247 |
| CGCACTGC | 0.0263 |
| ACGCAGGG | 0.103 |
| CGTTTAAG | -0.127 |
| AAGCGGGG | -0.193 |
| AGCTCAGC | -0.155 |
| AACCATCG | 0.224 |
| CTCACGGC | -0.0638 |
| ATTGTACC | 0.157 |
| CACAGCTG | -0.0441 |
| GGTACCGA | 0.239 |

| Sequence | PBM E-score |
| --- | --- |
| TACGCCGA | -0.193 |
| AAATAGGG | 0.141 |
| GGCACTTA | -0.036 |
| CAGTTAGG | -0.0141 |
| AGTCTTAG | -0.182 |
| ACCTTGAG | 0.354 |
| GAACAGTA | 0.00581 |
| GGGTAAAC | 0.194 |
| CAGAATGG | -0.0394 |
| ACCAGGGT | 0.358 |
| CCGGCCCC | -0.13 |
| GTTATACA | 0.269 |
| AACTGTAC | -0.0743 |
| GTGAATCA | -0.103 |
| AGACGTCT | -0.266 |
| AAATGTGT | 0.191 |
| AGCGAATA | -0.154 |
| CTGATGTA | -0.0474 |
| TCAATGCA | -0.197 |
